Measured values: publication PMC10668032
Some of the results follow. At the low end of the ranking, values are background and their order means little.

Molecular target: SIX1-Q177R homeodomain (UniProt Q15475)
Test: universal protein binding microarray
Details: Universal all-10-mer PBM (8x60K, AMADID 030236), 300 nM GST-tagged protein, Alexa Fluor 488 anti-GST; buffer, salt, pH and temperature not stated; high values mean tight binding; most listed sequences are background and not binding sites; double strand, one strand shown

| Sequence | binding signal |
| --- | --- |
| CCATACCC | 0.218 E-score |
| CCTTCTCA | -0.004 E-score |
| TATATAGA | -0.0858 E-score |
| TCGTGTCA | 0.443 E-score |
| TCACAACA | 0.195 E-score |
| CCAAATAG | -0.0763 E-score |
| AACGATGT | -0.0372 E-score |
| AGTAGCAT | -0.0284 E-score |
| CGAGTCCG | -0.0809 E-score |
| AGATTCTA | -0.191 E-score |
| GATATCGA | -0.123 E-score |
| GGAATACA | 0.197 E-score |
| CAGGTATC | 0.328 E-score |
| AATACTCG | 0.0473 E-score |
| CACTGGAC | 0.161 E-score |
| AATTCAAG | 0.0572 E-score |
| ATCTCCCC | -0.0273 E-score |
| AGACAGCC | -0.0899 E-score |
| ATCGTCGG | -0.183 E-score |
| AAGATATC | -0.0802 E-score |
| ACTACAAT | -0.0425 E-score |
| AATAAGCC | -0.188 E-score |

| Sequence | binding signal |
| --- | --- |
| AATTTCAG | -0.308 E-score |
| AGGTCACG | -0.197 E-score |
| GCGGGGAA | -0.135 E-score |
| AAATCGGG | -0.11 E-score |
| GAATTTGC | -0.143 E-score |
| ATGTCCCA | -0.342 E-score |
| AATTACCG | -0.134 E-score |
| AGGACAAC | 0.0718 E-score |
| AAGGGACC | -0.0833 E-score |
| CTCTGTGC | -0.214 E-score |
| CATATGTC | -0.244 E-score |
| CCCAGGTC | 0.0474 E-score |
| AGCCACTC | -0.191 E-score |
| ACGACATG | -0.0567 E-score |
| GTGTGCGA | 0.173 E-score |
| ACAACGGC | -0.236 E-score |
| CCCCTCCA | 0.195 E-score |
| CACATCGA | -0.117 E-score |
| GCCTCCAA | -0.118 E-score |
| AATTAACA | 0.14 E-score |
| GATCCTCC | 0.0993 E-score |
| CGTACCGC | 0.0133 E-score |

| Sequence | binding signal |
| --- | --- |
| GTAAGCAC | 0.189 E-score |
| CTGGCGTC | 0.0997 E-score |
| AAGAGGGG | 0.0481 E-score |
| GCGCTACC | 0.0841 E-score |
| GTCCCGGA | -0.0739 E-score |
| CACACTTA | 0.204 E-score |
| AGTTCCTC | -0.18 E-score |
| AAACTAGG | -0.0756 E-score |
| CTTAACAA | -0.238 E-score |
| AACGTTTC | -0.232 E-score |
| CTGGTTCC | -0.0794 E-score |
| AACGGTCA | -0.176 E-score |
| CAGACTTA | -0.154 E-score |
| GCGTATAA | -0.0799 E-score |
| AGTTATGG | -0.168 E-score |
| AGTACAGG | -0.0732 E-score |
| CGTTGAAA | -0.194 E-score |
| AAACGAAA | -0.0501 E-score |
| GCAACGCA | -0.164 E-score |
| ACGTTTCA | -0.0995 E-score |
| GCCGCAAC | 0.0161 E-score |
| CTTGTACC | 0.0467 E-score |

| Sequence | binding signal |
| --- | --- |
| AGAGGCCA | -0.186 E-score |
| GCTTCTTA | -0.197 E-score |
| TAAGATTA | -0.0197 E-score |
| AATACGGA | -0.151 E-score |
| ACGCGGCA | 0.0942 E-score |
| CCTGAGGA | 0.0873 E-score |
| CGTGCCAA | -0.043 E-score |
| CCTACACG | 0.398 E-score |
| GTCTTCCA | -0.168 E-score |
| AACGGTTG | -0.291 E-score |
| ACAAGGCG | -0.0518 E-score |
| CAAGTTGC | -0.0215 E-score |
| ATACATTC | 0.082 E-score |
| GACACGAC | 0.436 E-score |
| AAGTTTAG | -0.115 E-score |
| ACCGTGTC | 0.428 E-score |
| GATCAGCC | -0.0407 E-score |
| GTGATCAC | 0.103 E-score |
| GATTCACA | 0.203 E-score |
| AACGTGCC | -0.234 E-score |
| CTCCGGTC | 0.0249 E-score |
| AGCAACGA | -0.0478 E-score |

| Sequence | binding signal |
| --- | --- |
| ACATTGCC | -0.264 E-score |
| ACATTCCT | -0.178 E-score |
| TGTCGGAA | 0.233 E-score |
| ACCCATCC | 0.0184 E-score |
| GTGTCTTA | 0.363 E-score |
| CAGAACAA | -0.0327 E-score |
| CGTTTGCC | -0.135 E-score |
| AGCACTAT | -0.0435 E-score |
| ATCTGATA | 0.123 E-score |
| TACGGCAA | -0.0153 E-score |
| AGCTACCG | -0.34 E-score |
| CAGAACGG | 0.0106 E-score |
| GCAATGGC | -0.0915 E-score |
| CCCAGTAA | 0.0691 E-score |
| CTGGGGAC | -0.0813 E-score |
| ACAGTTCT | -0.16 E-score |
| CAAAAATG | 0.00455 E-score |
| CTCCCACA | 0.0811 E-score |
| TCAAAGCA | -0.000205 E-score |
| CGGGAGAA | -0.0182 E-score |
| TCGGCGCA | -0.109 E-score |
